To fix the notation:
B1: PhoQ; a variant is named by its letters at X, in order, P23837 (parent)
chain: MKKLLRLFFPLSLRVRFLLATAAVVLVLSLAYGMVALIGYSVSFDKTTFRLLRGESNLFYTLAKWENNKLHVELPENIDKQSPTMTLIYDENGQLLWAQRDVPWLMKMIQPDWLKSNGFHEIEADVNDTSLLLSGDHSIQQQLQEVREDDDDAEMTHSVAVNVYPATSRMPKLTIVVVDTIPVELKSSYMVWSWFIYVLSANLLLVIPLLWVAAWWSLRPIEALAKEVRELEEHNRELLNPATTRELTSLVRNLNRLLKSERERYDKYRTTLTDLTHSLKTPLXXLQXXLRSLRSEKMSVSDAEPVMLEQISRISQQIGYYLHRASMRGGTLLSRELHPVAPLLDNLTSALNKVYQRKGVNISLDISPEISFVGEQNDFVEVMGNVLDNACKYCLEFVEISARQTDEHLYIVVEDDGPGIPLSKREVIFDRGQRVDTLRPGQGVGLAVAREITEQYEGKIVAGESMLGGARMEVIFGRQHSAPKDE

The other results are listed elsewhere or left out.

This passage reports enrichment ratio results from a collection of fitness landscapes (doi:10.1126/science.1257360).

The assay covers variants of B1. In words: enrichment ratio after two sorts for PhoP signalling (ratio (wild type AVST 3.29)); higher = more functional. The note with it: with PhoP (E. coli).
With HECI, the enrichment ratio is 6.73.
Take PPTP: the enrichment ratio was at most 0.25.
For the variant PISK, the enrichment ratio was at most 0.25.
In the case of ECSC it was at most 0.25.
With ENFV, the enrichment ratio was at most 0.25.
Regarding IRFC, the enrichment ratio was at most 0.25.
KIVG: the enrichment ratio is at most 0.25.
Take WKYA: the enrichment ratio is at most 0.25.
On to HWPH, for which the enrichment ratio was at most 0.25.
The figure for RRVV is at most 0.25; for MFMQ it is at most 0.25; for MFSN it is 1.34.
As to MALI, the enrichment ratio came out at 10.9.
For RHID, the enrichment ratio was at most 0.25.
In the case of WMRI it was at most 0.25; in that of DFES, at most 0.25.
For QQSM, the enrichment ratio amounted to 13.3.
In the case of LAYN it was at most 0.25; in that of HQPW, at most 0.25; in that of GQAK, at most 0.25.
Regarding ICNK, the enrichment ratio is at most 0.25.
For APDK, the enrichment ratio was at most 0.25.
The figure for EFWA is at most 0.25; for AWKF it is at most 0.25; for TTYS it is 3.99.
The figure for IMYW is at most 0.25.
The figure for LYSG is at most 0.25.
In the case of DMKC, the enrichment ratio is at most 0.25.
The figure for RQAF is at most 0.25; for ALQW it is at most 0.25.
In the case of KEIA it was at most 0.25; in that of LTWH, at most 0.25; in that of HSNM, at most 0.25.
For IKIQ, the enrichment ratio is at most 0.25.
Turning to NHKS, the enrichment ratio was at most 0.25.
Consider RRLS, for which the enrichment ratio is at most 0.25.
Turning to GNPR, the enrichment ratio was at most 0.25.
The figure for HIFQ is at most 0.25; for MFCQ it is at most 0.25; for YRAT it is at most 0.25.
Consider SCCS, for which the enrichment ratio came to 9.76.
LTGS: the enrichment ratio was at most 0.25.
The figure for IIHW is at most 0.25; for RWGN it is at most 0.25; for WPNP it is at most 0.25.
Consider WNRT, for which the enrichment ratio is at most 0.25.
The figure for KAKC is at most 0.25; for INEH it is at most 0.25.
Turning to FFPI, the enrichment ratio is at most 0.25.
Consider KWAF, for which the enrichment ratio is at most 0.25.
As for PLWI, the enrichment ratio is at most 0.25.
The figure for IWGF is at most 0.25.
In the case of PRLM it was at most 0.25.
VKHW: the enrichment ratio is at most 0.25.
In the case of LGTA it was at most 0.25; in that of SRCV, 5.55.
Consider KSVC, for which the enrichment ratio was at most 0.25.
The figure for DRRH is at most 0.25; for QSRQ it is at most 0.25; for RQPM it is at most 0.25.
In the case of PQWN, the enrichment ratio is at most 0.25.
The figure for GICE is 6.08; for CSVI it is at most 0.25.
Take IAVS: the enrichment ratio is at most 0.25.
The figure for QSQW is at most 0.25; for VYIV it is at most 0.25; for AIIM it is 7.97.
In the case of SFML it was 1.95; in that of AQRM, at most 0.25; in that of LFEF, at most 0.25.
As for PRFW, the enrichment ratio is at most 0.25.
The figure for RSNR is at most 0.25; for RIWP it is at most 0.25.
Take SWDR: the enrichment ratio is at most 0.25.
For VDNR, the enrichment ratio is at most 0.25.
In the case of DQHG it was at most 0.25; in that of MWLQ, at most 0.25; in that of VPAT, at most 0.25.
As to ETWG, the enrichment ratio was at most 0.25.
The figure for ELFV is at most 0.25; for KFPH it is at most 0.25; for FCKA it is at most 0.25.
In the case of FHEQ it was at most 0.25.
In the case of KTSW it was at most 0.25.
With LGND, the enrichment ratio is at most 0.25.
The figure for NDHR is at most 0.25; for NLCV it is at most 0.25; for MNHG it is at most 0.25.
The figure for SETW is 3.01.
The figure for KKTT is at most 0.25; for MKDF it is at most 0.25; for ESTV it is at most 0.25.
As to NTWK, the enrichment ratio is at most 0.25.
In the case of RVRH it was at most 0.25.
The figure for FPQR is at most 0.25.
In the case of TPRG it was at most 0.25; in that of RDEY, at most 0.25; in that of QLAT, at most 0.25.
SSPV: the enrichment ratio worked out at 1.03.
As for NHDL, the enrichment ratio was at most 0.25.
As for FNTD, the enrichment ratio was at most 0.25.
The figure for EGFE is at most 0.25; for YMPK it is at most 0.25; for KPKY it is at most 0.25.
The figure for IDIV is at most 0.25; for GMEK it is at most 0.25; for QLCQ it is at most 0.25.
The figure for GAST is at most 0.25; for PLCE it is at most 0.25.
Turning to NING, the enrichment ratio was at most 0.25.
Consider IYFD, for which the enrichment ratio was at most 0.25.
On to PHVL, for which the enrichment ratio is at most 0.25.
For the variant FRRI, the enrichment ratio is at most 0.25.
As for YGMC, the enrichment ratio was 0.496.
The figure for WCTL is at most 0.25; for KHSI it is at most 0.25.
On to VICP, for which the enrichment ratio is at most 0.25.
The figure for YWPY is at most 0.25; for KIIC it is at most 0.25; for WIGF it is at most 0.25.
In the case of FLSD it was at most 0.25.
In the case of VLEY it was at most 0.25; in that of NWGS, at most 0.25.
With TTAI, the enrichment ratio was determined as 3.18.
Take SKRY: the enrichment ratio is at most 0.25.
In the case of IVDH, the enrichment ratio was at most 0.25.
In the case of SPIQ it was at most 0.25; in that of NDLC, at most 0.25; in that of VKGM, at most 0.25.
For the variant METE, the enrichment ratio is at most 0.25.
Consider SIMP, for which the enrichment ratio is at most 0.25.
In the case of HHVN it was at most 0.25; in that of QDWQ, at most 0.25; in that of GKQA, at most 0.25.
Consider TPVD, for which the enrichment ratio was at most 0.25.
As to FFQY, the enrichment ratio is at most 0.25.
In the case of HPRL it was at most 0.25; in that of YWET, at most 0.25; in that of SQNC, at most 0.25.
LSHE: the enrichment ratio was at most 0.25.
In the case of DLRL it was at most 0.25; in that of YNEC, at most 0.25.
The figure for EGNA is at most 0.25; for RNYG it is at most 0.25.
The figure for RVVP is at most 0.25; for ERTD it is at most 0.25.
As to RAYE, the enrichment ratio was at most 0.25.
Take QEYM: the enrichment ratio stood at 24.7.
As to MMYK, the enrichment ratio is at most 0.25.
In the case of MDWF it was at most 0.25; in that of PFHI, at most 0.25; in that of SKEV, at most 0.25.
Regarding IWPF, the enrichment ratio was 0.394.
